Reference: the supplement of paper PMC7125110
± gives the standard error. This sample is rich in variants without activity.

B1: glmS ribozyme (parent)
chain: AUAAAAGCGCCAGAACUACAGAAAUGUAGUUGACGAGGAGGAGGUUUAUCGAAUUUUCGGCGGAUGCCUCCAAA

Experiments:
Conditions in all cases: with glucosamine-6-phosphate
glucosamine-6-phosphate [1] = variants of: B1; test: self-cleavage kobs at 640 uM GlcN6P; higher = faster cleavage; RNA array
Outline: (§1)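 Glucosamine-6-phosphate in HEPES/KCl/Mg(OAc)2 buffer, at 40 μM to 10 mM, was flowed over barcoded ribozyme variants transcribed in situ by E. coli RNA polymerase on sequenced MiSeq chips. Tracking was through a hybridised Cy3 probe at 37 °C. kobs, kcat and KM came from exponential decay fits and weighted Michaelis–Menten fits of normalised per-tile medians.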

glucosamine-6-phosphate [2] = variants of: B1; test: self-cleavage kobs at 2500 uM GlcN6P; higher = faster cleavage; RNA array
Outline: as §1

glucosamine-6-phosphate [3] = variants of: B1; test: self-cleavage kobs at 160 uM GlcN6P; higher = faster cleavage; RNA array
Outline: as §1

glucosamine-6-phosphate [4] = variants of: B1; test: self-cleavage kobs at 10000 uM GlcN6P; higher = faster cleavage; RNA array
Outline: as §1

AUAAAUGCGCCUGAACUACAGAAAUGUAGUUGACGAGGAGGAGGGUUAUCGAAUUUUCGGCGGAUGCAUCCAAA
self-cleavage kobs at 640 uM GlcN6P (glucosamine-6-phosphate [1]): < 1e-05 s⁻¹
self-cleavage kobs at 2500 uM GlcN6P (glucosamine-6-phosphate [2]): < 1e-05 s⁻¹

AUAAAUGCGCCAGCACUACAGAAAUGUAGUUGACGAGGAGGAGGUUUAUCCAAUUUUCGGCGGAUGCCUCCAAA
self-cleavage kobs at 640 uM GlcN6P (glucosamine-6-phosphate [1]): < 1e-05 s⁻¹
self-cleavage kobs at 2500 uM GlcN6P (glucosamine-6-phosphate [2]): < 1e-05 s⁻¹

AUAAAUGCGCCAGGACUACAGAAAUGUAGUUGACGAGGAGGAGGUUUAUCGAAUUUUCGGCGGAUGCCUCCAAA
self-cleavage kobs at 640 uM GlcN6P (glucosamine-6-phosphate [1]): 0.000135 ± 2.3e-05 s⁻¹
self-cleavage kobs at 160 uM GlcN6P (glucosamine-6-phosphate [3]): 4.93e-05 ± 2.3e-05 s⁻¹
self-cleavage kobs at 2500 uM GlcN6P (glucosamine-6-phosphate [2]): 0.000414 ± 8.3e-05 s⁻¹
self-cleavage kobs at 10000 uM GlcN6P (glucosamine-6-phosphate [4]): 0.000513 ± 8.4e-05 s⁻¹

AUAAAUGCGCCAGAGCUAAAGAAAUGUAGUUGCCGAGGAGGAGGUUUAUCGAAUUUUCGGCGGAUGCGUCCAAA
self-cleavage kobs at 640 uM GlcN6P (glucosamine-6-phosphate [1]): < 1e-05 s⁻¹
self-cleavage kobs at 2500 uM GlcN6P (glucosamine-6-phosphate [2]): < 1e-05 s⁻¹

AUAAAUGCGCCAGAACUACAGAAAUGUAGUUGACGCGUAGGAGGUUUAUCGAAUUCUCGGCGGAUGGGUCCAAA
self-cleavage kobs at 640 uM GlcN6P (glucosamine-6-phosphate [1]): 0.000412 ± 0.0001 s⁻¹
self-cleavage kobs at 2500 uM GlcN6P (glucosamine-6-phosphate [2]): 0.000145 ± 4.4e-05 s⁻¹

AUAAAUGCGCCAGAACUACAGAAAUGUAGUUGACGAGGUGGAGGUUUAUUGAAUUUUCGGCGGAUGCCAACAAA
self-cleavage kobs at 640 uM GlcN6P (glucosamine-6-phosphate [1]): < 1e-05 s⁻¹
self-cleavage kobs at 2500 uM GlcN6P (glucosamine-6-phosphate [2]): < 1e-05 s⁻¹

AUAAAUGAGCCAGAACUACAGAAAUGUAAUUGACGAGGAGGAGGUUUAUCGAAUUUUCGACGCAUGCCUCCAAA
self-cleavage kobs at 640 uM GlcN6P (glucosamine-6-phosphate [1]): < 1e-05 s⁻¹
self-cleavage kobs at 2500 uM GlcN6P (glucosamine-6-phosphate [2]): < 1e-05 s⁻¹

AUAAAUGUUCCAGAACUACAGAAAUGUAGUUGACGAGGAGGAGGUUGAUCGAAUUUUCGGCGGAUGCCUCCAAA
self-cleavage kobs at 640 uM GlcN6P (glucosamine-6-phosphate [1]): < 1e-05 s⁻¹
self-cleavage kobs at 2500 uM GlcN6P (glucosamine-6-phosphate [2]): < 1e-05 s⁻¹

AUAAAUGCGACAGAACUACAGAAAUGUAGUUGACGAGGGCGAGGUUUAUCGAAUUUUCGGGGGAUGGCUCCAAA
self-cleavage kobs at 640 uM GlcN6P (glucosamine-6-phosphate [1]): < 1e-05 s⁻¹
self-cleavage kobs at 160 uM GlcN6P (glucosamine-6-phosphate [3]): < 1e-05 s⁻¹
self-cleavage kobs at 2500 uM GlcN6P (glucosamine-6-phosphate [2]): < 1e-05 s⁻¹

AUAAAUGCGGCAGAACUACAGAAAUGUAGUUGACGAGGAGGAGGUUUAUCGGAUUUUCGGCGGAUGCCUCCAAA
self-cleavage kobs at 640 uM GlcN6P (glucosamine-6-phosphate [1]): < 1e-05 s⁻¹

AUAAAUGCGGCAGAACUACAGAAAUGUAGUUGACGAGGAGGAGGUUUAUCGACUUUUCGGCUGAUGCCUCCAAA
self-cleavage kobs at 640 uM GlcN6P (glucosamine-6-phosphate [1]): < 1e-05 s⁻¹
self-cleavage kobs at 2500 uM GlcN6P (glucosamine-6-phosphate [2]): < 1e-05 s⁻¹

AUAAAUGCGGCAGAACUACAGAAAUGUAGUUGACUAGGAGGAGGUUUAUCGAAUUUUCGGCUGAUGCCUACAAA
self-cleavage kobs at 640 uM GlcN6P (glucosamine-6-phosphate [1]): < 1e-05 s⁻¹
self-cleavage kobs at 160 uM GlcN6P (glucosamine-6-phosphate [3]): < 1e-05 s⁻¹

AUAAAUGCGGCAGAACUACAGAAAUGUAGUUGACGAGGAGGAGGUUUAUCGAAUUUUCGGCGCAUGCCUCCAAA
self-cleavage kobs at 640 uM GlcN6P (glucosamine-6-phosphate [1]): < 1e-05 s⁻¹
self-cleavage kobs at 160 uM GlcN6P (glucosamine-6-phosphate [3]): < 1e-05 s⁻¹
self-cleavage kobs at 2500 uM GlcN6P (glucosamine-6-phosphate [2]): < 1e-05 s⁻¹

AUAAAUGCGUCAGAACUACAGAAAUGUAGUUGACCAGGAGGAGGUUUUUCGAAUUUUCGGCGAAUGCCUCCAAA
self-cleavage kobs at 640 uM GlcN6P (glucosamine-6-phosphate [1]): < 1e-05 s⁻¹

AUAAAUGCGCGAGAACUACAGAAAUGUAGUUGACGAGGAGGAGGUUUAUCGAAUUUUCGGCGGAUGCAUGCAAA
self-cleavage kobs at 640 uM GlcN6P (glucosamine-6-phosphate [1]): < 1e-05 s⁻¹
self-cleavage kobs at 2500 uM GlcN6P (glucosamine-6-phosphate [2]): < 1e-05 s⁻¹

AUAAAUGCGCUAGAACUACAGAAAUGUAGUUGCCGAGGAGGAGGUUCAUCGAAUUUUCGGCGGAAGCCUCCAAA
self-cleavage kobs at 640 uM GlcN6P (glucosamine-6-phosphate [1]): < 1e-05 s⁻¹
self-cleavage kobs at 10000 uM GlcN6P (glucosamine-6-phosphate [4]): < 1e-05 s⁻¹

AUAAAUGCGCCAGAAUUACAGAAAUGUACUUGACGAGGAGGUGGUUUAUCGAAUUUUCGGGGGAUGCCUCCAAA
self-cleavage kobs at 640 uM GlcN6P (glucosamine-6-phosphate [1]): < 1e-05 s⁻¹
self-cleavage kobs at 160 uM GlcN6P (glucosamine-6-phosphate [3]): < 1e-05 s⁻¹
self-cleavage kobs at 2500 uM GlcN6P (glucosamine-6-phosphate [2]): < 1e-05 s⁻¹

AUAAAUGCGCCAGAAUUACAGAAAUGUAGUUGACGAGGAUGAGGUUUAUCGAAUUUUCGGCGGAUGACUCCAAA
self-cleavage kobs at 640 uM GlcN6P (glucosamine-6-phosphate [1]): < 1e-05 s⁻¹
self-cleavage kobs at 2500 uM GlcN6P (glucosamine-6-phosphate [2]): < 1e-05 s⁻¹

AUAAAUGCGCCAGAACUACAGAAAUGUAGUUGACGAGGAGGAGGUUUAUAGAAUUUUCGACGGAUGCCUACAAA
self-cleavage kobs at 640 uM GlcN6P (glucosamine-6-phosphate [1]): 0.000136 ± 5e-05 s⁻¹

AUAAAUGCGCCAGAACUACAGAAAUGUAGUUGACGAGGAGGAGGUUUAUCGAAUUUUCGGCGGAUGCCUCGAAA
self-cleavage kobs at 640 uM GlcN6P (glucosamine-6-phosphate [1]): 5.72e-05 ± 1.3e-05 s⁻¹
self-cleavage kobs at 2500 uM GlcN6P (glucosamine-6-phosphate [2]): 2.85e-05 ± 1e-05 s⁻¹
self-cleavage kobs at 10000 uM GlcN6P (glucosamine-6-phosphate [4]): 2.69e-05 ± 8e-06 s⁻¹

AUAAAUCCGCCAGAACUACAGAAAUGUAGUUGACGAGGAGGAGGUUUCUCGAAUUUUCGGCGGAUGCCUCCAAA
self-cleavage kobs at 640 uM GlcN6P (glucosamine-6-phosphate [1]): < 1e-05 s⁻¹
self-cleavage kobs at 160 uM GlcN6P (glucosamine-6-phosphate [3]): < 1e-05 s⁻¹
self-cleavage kobs at 2500 uM GlcN6P (glucosamine-6-phosphate [2]): < 1e-05 s⁻¹

AUAAAUCCGCCAGAACUACAGAAAUGUAGUUGACGAGGAGGAGGUUUAUCUAAUUUUCGGCGGAUGCCUCCAAA
self-cleavage kobs at 640 uM GlcN6P (glucosamine-6-phosphate [1]): < 1e-05 s⁻¹
self-cleavage kobs at 2500 uM GlcN6P (glucosamine-6-phosphate [2]): < 1e-05 s⁻¹

AUAAAUGCUCCAGAACUACAGAAAUGUAGUUGACGAGGAGGAGGUUUAUCGAAUUUUCGGCGUAUGCCUCCAAA
self-cleavage kobs at 640 uM GlcN6P (glucosamine-6-phosphate [1]): < 1e-05 s⁻¹

AUAAAUGCGCCAAAACUACAGAAAUGUAGUUGACGAGGAGCAGGUUUAUCGAAUUUUCGGCGGAUGUCCCCAAA
self-cleavage kobs at 640 uM GlcN6P (glucosamine-6-phosphate [1]): < 1e-05 s⁻¹
self-cleavage kobs at 160 uM GlcN6P (glucosamine-6-phosphate [3]): < 1e-05 s⁻¹
self-cleavage kobs at 2500 uM GlcN6P (glucosamine-6-phosphate [2]): < 1e-05 s⁻¹
self-cleavage kobs at 10000 uM GlcN6P (glucosamine-6-phosphate [4]): < 1e-05 s⁻¹

AUAAAUGCGCCACAACUACAGAAAUGUAGUUGACGAGGAGGGGGUUUAUCGAAUUUUCGGCGGAUGACUCCAAA
self-cleavage kobs at 640 uM GlcN6P (glucosamine-6-phosphate [1]): < 1e-05 s⁻¹

AUAAAUGCGCCACAACUACAGAAAUGUAGUUGACGAGGAGGAGGUUUAUCGAAUUUUCGGCGGAUGCCUCUAAA
self-cleavage kobs at 640 uM GlcN6P (glucosamine-6-phosphate [1]): < 1e-05 s⁻¹
self-cleavage kobs at 160 uM GlcN6P (glucosamine-6-phosphate [3]): < 1e-05 s⁻¹
self-cleavage kobs at 2500 uM GlcN6P (glucosamine-6-phosphate [2]): < 1e-05 s⁻¹

AUAAAUGCGCCAGAACUACAUAAAUGUAGUUGACGAGGGGGAGGUUUAUUGAAUUUUCGGCGGAUGCCUCCAAA
self-cleavage kobs at 640 uM GlcN6P (glucosamine-6-phosphate [1]): < 1e-05 s⁻¹

AUAAAUGCGCCAGAACUACAGAAAUGUAUUUGACGAGGAGGAGGUUUAUCGAAUUUUCGGCGUAUGCCUCCAAA
self-cleavage kobs at 640 uM GlcN6P (glucosamine-6-phosphate [1]): < 1e-05 s⁻¹
self-cleavage kobs at 2500 uM GlcN6P (glucosamine-6-phosphate [2]): < 1e-05 s⁻¹

AUAAAUGCGCCAGAACUACAGAAAUGUAGUUCACGAGGAGGAGGUUUAUCGAAUUUUCGGCGGAUGUCUUCAAA
self-cleavage kobs at 640 uM GlcN6P (glucosamine-6-phosphate [1]): < 1e-05 s⁻¹
self-cleavage kobs at 2500 uM GlcN6P (glucosamine-6-phosphate [2]): < 1e-05 s⁻¹

AUAAAUGCGCCAGAACUACAGAAAUGUAGUUGACCAGGAGGAGGUUUAUCGAAUUUUCGGCGGCUGCCUCCAAA
self-cleavage kobs at 640 uM GlcN6P (glucosamine-6-phosphate [1]): < 1e-05 s⁻¹
self-cleavage kobs at 2500 uM GlcN6P (glucosamine-6-phosphate [2]): < 1e-05 s⁻¹

AUAAAUGCGCCAGAACUACAGAAAUGUAGUUGACUAGGAGGAGGUUUAUCGAAUUUUCGGCGGAUGACUCCAAA
self-cleavage kobs at 640 uM GlcN6P (glucosamine-6-phosphate [1]): < 1e-05 s⁻¹
self-cleavage kobs at 160 uM GlcN6P (glucosamine-6-phosphate [3]): < 1e-05 s⁻¹
self-cleavage kobs at 2500 uM GlcN6P (glucosamine-6-phosphate [2]): < 1e-05 s⁻¹

AUAAAUGCGCCAGAACUACAGAAAUGUAGUUGACUAGCAGGAGGUUUAUCGAAUUUUCGGCGGAUGCCUCCAAA
self-cleavage kobs at 640 uM GlcN6P (glucosamine-6-phosphate [1]): < 1e-05 s⁻¹
self-cleavage kobs at 2500 uM GlcN6P (glucosamine-6-phosphate [2]): < 1e-05 s⁻¹
self-cleavage kobs at 10000 uM GlcN6P (glucosamine-6-phosphate [4]): < 1e-05 s⁻¹

AUAAAUGCGCCAGAACUACAGAAAUGUAGUUGACGACGAGGAGGUUUAUCGAAUUUUCGGCGAAUGCCUCCAAA
self-cleavage kobs at 640 uM GlcN6P (glucosamine-6-phosphate [1]): < 1e-05 s⁻¹

AUAAAUGCGCCAGAACUACAGAAAUGUAGUUGACGAGAAGAAGGUUUAUCGAAUUUUCGGCGGAUGCAGCCAAA
self-cleavage kobs at 640 uM GlcN6P (glucosamine-6-phosphate [1]): < 1e-05 s⁻¹
self-cleavage kobs at 2500 uM GlcN6P (glucosamine-6-phosphate [2]): < 1e-05 s⁻¹

AUAAAUGCGCCAGAACUACAGAAAUGUAGUUGACGAGCAGGAGGUUUAUCGAAUUUUCGGCGGAUGCCUGCAAA
self-cleavage kobs at 640 uM GlcN6P (glucosamine-6-phosphate [1]): < 1e-05 s⁻¹
self-cleavage kobs at 160 uM GlcN6P (glucosamine-6-phosphate [3]): < 1e-05 s⁻¹
self-cleavage kobs at 2500 uM GlcN6P (glucosamine-6-phosphate [2]): < 1e-05 s⁻¹
